Measured values reported in PubChem BioAssay AID445 (National Center for Advancing Translational Sciences (NCATS), 2006).
About 40 (0.04%) of roughly 110,000 compounds were called active. The shares of active, inactive and inconclusive entries below differ from those in the screen. Calls come from the whole dose curve; as a rule, active = well fitted curve in the direction sought with a large enough effect in the signal ratio (not every such curve was filed as active); inconclusive = small, poorly fitted or top-dose-only effect, or a change in a side signal; inactive = flat fitted curve, though single readings scatter; the % refers to the signal ratio. A potency beside an inconclusive call is a rough fit, not a confirmed value.

assay: IkB Signaling; conditions: ABC-DLBCL IkBa-CBG/CBR dual luciferase ratio (green luciferase fused to IkBa over red control in OCI-Ly3 lymphoma cells), 4 h; IkBa stabilization activation: at 57.1 µM (top of the series), scaled: untreated 0%, proteasome inhibitor 100% unless noted;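 for IkBa stabilization activation: 0% = basal untreated cells and 100% = reference inhibitor full response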
In short: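 Curves were fitted separately to fusion (green), unfused (red) and ratio luminescence, then classed by r2, magnitude and activity. Cells: OCI-Ly3, 4 h compound plus doxycycline at 37C; 10 uM MG-132 defined full response.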
Potency is the fitted concentration of half-maximal effect.

Structure (SMILES) | IkBa stabilization activation | Potency
Cc1ccc(C)c(N2CCN(C(=O)COc3cc(=O)n(C)c4ccccc34)CC2)c1 | inconclusive: 6.46% [signal inhibitor] | 
CCc1nc(SCc2ccc(C(=O)OC)o2)c2c(=O)n(C)c(=O)n(C)c2n1 | inactive: -0.097% | 
COc1cccc(NC(=O)c2ccc(CNS(=O)(=O)c3ccc4c(c3)C(C)(C)C(=O)N4C)cc2)c1 | inactive: -1.04% | 
N#Cc1c(C(F)(F)F)cc(-c2ccccc2)nc1SCc1nc(N)nc(N2CCOCC2)n1 | inactive: -2.05% | 
Cc1c(Cl)cccc1NC(=O)CSc1cc(-c2ccccc2)ncn1 | inconclusive: 0.377% [signal inhibitor] | 
Cc1ccccc1-n1nc2c(c1NC(=O)c1cc3ccccc3oc1=O)CS(=O)(=O)C2 | inactive: -0.364% | 
Cc1ccc(-c2nnc(Nc3ccc(O)cc3)c3ccccc23)cc1S(=O)(=O)NCC1CCCO1 (stereo not given) | inconclusive: 4.24% [signal inhibitor] | 
CC(C)n1c(=O)c2oc3ccccc3c2n(Cc2ccccc2F)c1=O | inactive: 0.184% | 
Cc1ccc(S(=O)(=O)Nc2ccc3c(c2)c(C(=O)OC(C)C)c(C)n3S(=O)(=O)c2ccc(C)cc2)cc1 | inactive: -0.991% | 
O=S(=O)(Nc1ccc(Br)cc1)c1ccc2nc(-c3ccccc3)[nH]c2c1 | inconclusive: -2.53% [signal inhibitor] | 
O=C(CCC1N=C2c3ccccc3N=C(SCc3cccc(F)c3)N2C1=O)NCc1ccc(F)cc1 (stereo not given) | inconclusive: -0.853% [signal inhibitor] | 
CC1=NCC[N@@+]1(CCc1ccccc1)Cc1ccccc1 | inactive: 0.041% [at 11.4 µM, scaled: untreated 0%, proteasome inhibitor 100%] | 
O=C(Nc1ccccc1Br)N1CCN2CCCCC2C1 (stereo not given) | inactive: -0.139% | 
COc1ccccc1N=c1scc(-c2ccc3c(c2)NC(=O)CO3)n1CC1CCCO1 (stereo not given) | inconclusive: 11.6% [signal inhibitor] | 
O=C1CC(N2CCCc3ccccc32)C(=O)N1c1ccccc1 (stereo not given) |  | inconclusive: 0.501 µM [signal inhibitor, full curve]
COc1ccc(C(=O)c2cn(Cc3cccc(C)c3)c3cc4c(cc3c2=O)OCCO4)cc1OC | inconclusive: 1.04% [signal inhibitor] | 
CCc1ccc(NC(=O)CN2C(=O)CCSc3ccc(S(=O)(=O)N4CCCC4)cc32)cc1 | inactive: 1.01% | 
CCN(CC)CCNC(=O)Cn1ncc2c3ccccc3n(Cc3ccccc3C)c2c1=O | inconclusive: -0.268% [signal inhibitor] | 
CCn1c(SCC(=O)c2ccc3c(c2)OCCO3)nnc1-c1ccco1 | inactive: 1.29% | 
COC(=O)c1ccccc1NC(=O)c1cc(=O)c2ccc(C)c(C)c2o1 | inconclusive: 0.317% [signal inhibitor] | 
Cc1nnc2c3ccccc3nc(N3CCN(c4cccc(Cl)c4)CC3)n12 | inconclusive: -1% [signal inhibitor] | 
Cc1cccc(-n2ncc3c(Nc4c(C)cc(C)cc4C)ncnc32)c1 | inconclusive: 1.03% [signal inhibitor] | 
Oc1ccc(Nc2nc(-c3ccc(Cl)cc3)nc3ccccc23)cc1 | inconclusive: 5.46% [signal inhibitor] | 

Structure (SMILES) | IkBa stabilization activation | Potency
CCc1ccc(NC(=O)c2oc3c(c2C)-c2[nH]ncc2CC3)cc1 | inconclusive: -0.613% [signal inhibitor] | 
COc1ccc(NC(=O)c2cc(-c3cc(C)cc(C)c3O)n[nH]2)cc1Cl | inconclusive: -7.57% [signal inhibitor] | 
CN(C)S(=O)(=O)c1ccc(NC(=O)c2cc3ccccc3o2)cc1 | inactive: -0.924% | 
Cc1ccccc1CNC(=O)C1CCCN(c2nnc(-n3c(C)ccc3C)s2)C1 (stereo not given) | inactive: 5.88% | 
Cn1cc(S(=O)(=O)N2CCCCCC2)cc1C(=O)N1CCN(c2ccc(Cl)cc2)CC1 | inconclusive: 2.22% [signal inhibitor] | 
Clc1ccc(CCNC(c2cccc(Cl)c2)c2nnc(-c3ccccc3)o2)cc1 (stereo not given) | inconclusive: 3.62% [signal inhibitor] | 
Cc1nn(C)c2c1c(C(F)(F)F)cc(=O)n2C(C)C(=O)N1CCN(c2ccccc2)CC1 (stereo not given) | inconclusive: 5.93% [signal inhibitor] | 
COC(=O)c1c(-c2ccc(F)cc2)csc1NC(=O)c1ccco1 | inactive: -2.33% | 
CC1=C(C(=O)Nc2ccccc2)C(c2ccccc2Cl)n2ncc(C(=O)Nc3cccc(C)c3)c2N1 (stereo not given) | inconclusive: 4.73% [signal inhibitor] | 
COc1ccccc1CNC(=O)CCCn1c(=O)c2cccn2c2ccccc21 | inactive: 2.23% | 
CCC(C)NC(=O)c1c(N)n(/N=C/c2ccccn2)c2nc3ccccc3nc12 (stereo not given) | inactive: 7.06% | 
CC(C)(C)OC(=O)N1CCC(c2c(C(=O)N3CCOCC3)cnn2-c2ccccc2Cl)CC1 | inconclusive: 1.92% [signal inhibitor] | 
COc1ccc(-c2nc(SCC(=O)Nc3cccc(C(C)=O)c3)n[nH]2)cc1 | inconclusive: 2.01% [signal inhibitor] | 
Fc1ccc(-c2noc3ncnc(N4CCCCC4)c23)cc1 | inactive: -1.77% | 
O=C(Cc1ccccc1)Nc1cc(-c2nc3cc(Cl)ccc3o2)ccc1Cl | inconclusive: 5.67% [signal inhibitor] | 
COc1ccc(OCCC(=O)Nc2cc(C)on2)cc1 | inactive: 0.969% | 
Cc1ccc(-n2ncc3c(N(CCO)Cc4ccccc4)ncnc32)cc1 | inactive: -1.91% | 
COC1=C(OC)c2ccccc2C(C(=O)O)N/C1=C(/C)Nc1ccncc1 (stereo not given) |  | inconclusive: 15.8 µM [signal inhibitor, partial curve]
O=C(O)[C@@H]1[C@@H](C(=O)NCc2ccncc2)[C@@H]2C=C[C@@H]1O2 | inactive: 1.04% [at 11.4 µM, scaled: untreated 0%, proteasome inhibitor 100%] | 
O=C(NCC(c1cccs1)S(=O)(=O)c1cccs1)c1ccc(C(F)(F)F)cc1 (stereo not given) | inconclusive: -1.07% [signal inhibitor] | 
CCOc1ccccc1NC(=O)N1CCCn2nc(C)cc21 | inconclusive: 4.27% [signal inhibitor] | 
COc1ccc(N(C(=O)COc2ccc(Br)cc2)S(=O)(=O)c2ccc(C)cc2)cc1 |  | inconclusive: 25.1 µM [signal inhibitor]
